Experimental data reported in the supplement of paper PMC10126150.
Sequences with one replicate were seen in a single cluster, so their values are uncertain.

tested on: ATP; experiment: switch fluorescence ratio, 500 uM ATP over buffer (Cy3 cluster intensity, sum of 5 cycles each) (fold (ratio)); higher = stronger signal-on switching upon ATP binding; sequences stand for … in TCGTCGGCAGCGTCAGATGTGTATAAGAGACAGTTTTTTTTTTTTTTTTTTTTTTTTT…TC; settings: aptamer strand: ATP DNA aptamer (quencher-CACCTGGGGGAGTATTGCGGAGGAAGG + anchor), 100 nM annealed; ATP concentration: 500 uM; one replicate
Summary of the method: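 Clusters with intensities outside 100-1000 RFU were excluded. The remaining Cy3-labelled switching-strand clusters on a modified Illumina MiSeq flow-cell had been annealed to 100 nM quencher-labelled ATP aptamer and imaged in selection buffer, then after 15 min with 500 uM ATP at 22 °C, for five cycles separated by NaOH stripping and re-annealing. The fluorescence ratio, averaged per switch-domain sequence, is each cluster's summed target-cycle Cy3 intensity over its summed buffer-cycle Cy3 intensity.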
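Further: ATP exposure 15 min at 22 °C before imaging.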

Sequence | switch fluorescence ratio
TAGGATTTAT | 0.936
TAGGCACGA | 1.03
TAGGCAGTTT | 0.995
TAGGCCGACG | 1.01
TAGGCGATGG | 1
TAGGCTAATA | 0.964
TAGGCTAGCT | 0.926
TAGGCTGAA | 0.996
TAGGGAAACG | 0.98
TAGGGAACAA | 0.981
TAGGGATGGA | 0.968
TAGGGATTGA | 0.998
TAGGGCCACT | 1.03
TAGGGCGACC | 1.02
TAGGGGCCCT | 1.04
TAGGGTATAG | 1.02
TAGGGTCACA | 1.02
TAGGGTCAGG | 0.961
TAGGGTCGCG | 1
TAGGGTCGTC | 1
TAGGGTGACA | 1.01
TAGGGTGAGA | 1.02
TAGGTACGGC | 1.01
TAGGTAGCTG | 1.05
TAGGTATAGT | 0.97
TAGGTCGTCG | 1

Sequence | switch fluorescence ratio
TAGGTGAAGC | 0.984
TAGGTGATT | 1.06
TAGGTGCGG | 1.03
TAGGTGGCGA | 0.964
TAGGTTCTTG | 0.957
TAGTAAAATG | 0.999
TAGTAACAAG | 0.989
TAGTAACAGT | 1.01
TAGTAACCCG | 1.07
TAGTAATCCG | 0.976
TAGTACAGTC | 0.91
TAGTATGGCC | 0.957
TAGTCAAGGT | 1.03
TAGTCAGCGA | 1.05
TAGTCCACGT | 1.05
TAGTCCTAAG | 1.01
TAGTCGGCTT | 0.993
TAGTCGTACG | 1
TAGTCTACAA | 1.07
TAGTCTACCT | 1.13
TAGTGAACAG | 1.02
TAGTGACAA | 1.03
TAGTGCAATG | 1.01
TAGTGCAGGT | 1.01
TAGTGCGTCC | 1.06
TAGTGCTACT | 1.02

Sequence | switch fluorescence ratio
TAGTGGGGC | 0.962
TAGTTAAGAT | 1.02
TAGTTAGAGG | 1.02
TAGTTAGGGA | 0.988
TAGTTCACCG | 1.02
TAGTTCAGCA | 1.01
TAGTTCTTTA | 1.03
TAGTTGATGG | 0.989
TAGTTGCGGA | 0.98
TAGTTGTAT | 0.989
TAGTTGTTGG | 0.972
TAGTTTGCCT | 1.06
TAGTTTGCGT | 0.985
TATAAAGAAA | 1.03
TATAACGCTA | 1.16
TATAACGGGT | 1.04
TATAACTAA | 0.965
TATAACTTG | 1.01
TATAAGGCCC | 1
TATAAGTCCC | 1.01
TATAATGACG | 0.888
TATACAGGT | 0.971
TATACAGTGA | 0.937
TATACCATGT | 1.02
TATACCCGCC | 1.22
TATACCGGAG | 1.11

Sequence | switch fluorescence ratio
TATACCTGGG | 1.02
TATACGAGTG | 0.965
TATACTAGGC | 1.09
TATAGAATAT | 0.984
TATAGAATC | 1
TATAGATTC | 0.979
TATAGCAGGA | 0.993
TATAGCAGTA | 1.06
TATAGGCCTT | 1
TATAGGCGTA | 1.04
TATAGGTCCG | 1.09
TATAGTCGTT | 1.05
TATAGTGCAC | 0.961
TATAGTTAGG | 1.01
TATATAACGA | 0.995
TATATAAGGA | 1.03
TATATACCGT | 1.06
TATATCTATG | 1.05
TATATGAAGC | 1.05
TATATTAGTA | 0.965
TATATTCAGG | 1.01
TATCAATTGA | 1.03
TATCACAGTC | 1.01
TATCACTGAT | 1.04
TATCAGGAAA | 0.947
TATCATGAAA | 1.02

Sequence | switch fluorescence ratio
TATCATGTGG | 0.969
TATCCAAACG | 1.01
TATCCAAGG | 1.01
TATCCACACC | 1.18
TATCCCAAG | 0.987
TATCCCAGTC | 1.05
TATCCCTGGG | 1.06
TATCCTAAGA | 1.07
TATCCTGGAG | 1.04
TATCGAAGCC | 1.05
TATCGAATA | 0.963
TATCGATAAG | 1
TATCGCAATA | 3.4
TATCGGGACG | 0.962
TATCTAAGAA | 1.01
TATCTATGTT | 0.953
TATCTCTAGC | 0.985
TATCTCTGGA | 0.975
TATCTGGCTA | 0.983
TATCTTCGC | 1.06
TATGAAATGG | 0.965
TATGAAATTT | 0.986
TATGAACCCT | 1.08
TATGAACGTA | 1.02
TATGACTCAT | 0.966
TATGAGAT | 1.03

Sequence | switch fluorescence ratio
TATGAGCGAG | 1.07
TATGAGTCTG | 1
TATGATATG | 0.987
TATGATGATG | 0.982
TATGATGCT | 0.949
TATGATTAAA | 1.01
TATGATTACT | 1.02
TATGCATAAT | 0.989
TATGCATTCA | 1.03
TATGCATTTG | 0.934
TATGCCTTAT | 1.02
TATGCGACGG | 1.05
TATGCGACTC | 1.06
TATGCGAGGA | 1.04
TATGCGCACT | 1.04
TATGCGGTCG | 1.06
TATGCGTCGC | 1.04
TATGCTATAT | 0.995
TATGCTCCAG | 1.06
TATGGACGAT | 0.984
TATGGACTGA | 1.03
TATGGATTG | 0.997
TATGGCATAA | 0.995
TATGGCATCA | 1.03
TATGGGCCTT | 0.944
TATGGGGTCG | 0.963

Sequence | switch fluorescence ratio
TATGGTAAAG | 1.02
TATGGTAGGA | 0.97
TATGGTTGG | 0.959
TATGTAACTT | 1.01
TATGTAATGA | 1.01
TATGTCGTTG | 1
TATGTCTGGG | 0.93
TATGTTCCCA | 0.981
TATGTTTTCG | 0.973
TATTAAAGAG | 0.934
TATTAACAGG | 1.02
TATTAAGTA | 0.943
TATTACCAAT | 0.986
TATTACGCT | 1.02
TATTAGACG | 1.03
TATTAGGGA | 0.998
TATTAGTAGG | 0.997
TATTATAAAC | 1.14
TATTATCGTT | 0.992
TATTATCTCA | 0.989
TATTCAATCG | 1.1
TATTCAGAGA | 1.02
TATTCCGAGA | 1.05
TATTCGACGT | 1.05
TATTCTAAAA | 0.997
TATTCTTAAT | 0.996

Sequence | switch fluorescence ratio
TATTCTTAGT | 0.982
TATTCTTTAT | 0.998
TATTGAAAG | 0.998
TATTGATTTC | 0.967
TATTGCAAGA | 0.999
TATTGCCCCT | 0.971
TATTGCTAGC | 1.02
TATTGGCGTG | 0.96
TATTGGTACT | 1.04
TATTGGTGCG | 0.958
TATTGTCATC | 0.991
TATTGTTGGA | 0.991
TATTGTTTAG | 1.01
TATTTACCTA | 1.1
TATTTATATG | 1.01
TATTTCAATT | 0.961
TATTTCCC | 1.02
TATTTCCTG | 0.975
TATTTGGGC | 1.07
